Experimental findings from paper PMC4336329 (PLoS ONE, 2015) are described below.

Molecules are shown by their SMILES. Among all 310,000 compounds or so, about 14,000 (4.5%) showed an effect of 50% or more. Effects have a minus sign here. The list shows a part of the results.
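Further: peak tail current of the secondary pulse compared with the same well before compound.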

human ether-à-go-go-related gene (hERG) potassium channel, sequence (Q12809 whole entry, looked up): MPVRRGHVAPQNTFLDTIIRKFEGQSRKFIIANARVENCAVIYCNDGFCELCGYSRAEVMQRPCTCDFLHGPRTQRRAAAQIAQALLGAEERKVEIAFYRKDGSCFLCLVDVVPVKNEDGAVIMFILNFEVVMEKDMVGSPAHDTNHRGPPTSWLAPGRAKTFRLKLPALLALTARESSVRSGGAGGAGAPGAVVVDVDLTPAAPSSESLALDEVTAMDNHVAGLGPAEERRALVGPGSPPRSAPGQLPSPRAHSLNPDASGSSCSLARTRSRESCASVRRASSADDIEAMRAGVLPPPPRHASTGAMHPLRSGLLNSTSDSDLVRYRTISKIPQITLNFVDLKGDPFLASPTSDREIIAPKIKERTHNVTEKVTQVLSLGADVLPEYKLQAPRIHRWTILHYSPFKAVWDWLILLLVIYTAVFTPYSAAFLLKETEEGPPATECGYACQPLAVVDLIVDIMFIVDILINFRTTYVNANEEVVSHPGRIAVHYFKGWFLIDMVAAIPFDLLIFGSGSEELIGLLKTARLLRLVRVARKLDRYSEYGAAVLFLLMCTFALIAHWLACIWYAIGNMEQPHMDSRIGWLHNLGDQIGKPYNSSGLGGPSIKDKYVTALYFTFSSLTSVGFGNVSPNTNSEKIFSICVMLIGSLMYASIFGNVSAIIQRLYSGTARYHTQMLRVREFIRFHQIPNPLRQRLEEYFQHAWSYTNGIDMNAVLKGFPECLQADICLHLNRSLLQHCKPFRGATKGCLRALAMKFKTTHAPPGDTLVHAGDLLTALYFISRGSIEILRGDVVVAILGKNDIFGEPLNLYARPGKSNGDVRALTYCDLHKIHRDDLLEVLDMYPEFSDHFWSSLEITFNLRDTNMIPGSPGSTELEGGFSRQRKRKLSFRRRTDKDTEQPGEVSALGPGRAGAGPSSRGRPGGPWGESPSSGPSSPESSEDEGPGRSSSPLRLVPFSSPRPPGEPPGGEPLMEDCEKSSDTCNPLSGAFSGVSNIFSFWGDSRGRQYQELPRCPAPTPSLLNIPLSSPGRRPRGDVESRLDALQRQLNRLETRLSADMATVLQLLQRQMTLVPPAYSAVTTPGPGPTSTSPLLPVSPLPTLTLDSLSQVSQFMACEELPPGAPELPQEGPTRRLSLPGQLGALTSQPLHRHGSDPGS

The test has as its target human ether-à-go-go-related gene (hERG) potassium channel (human, UniProt Q12809). Put plainly: primary screen, population patch clamp on CHO cells stably expressing hERG.
As for `CN1C(=O)C(=O)/C(=C(/O)c2ccc(Br)cc2)C1c1cccc([N+](=O)[O-])c1` (centres unmarked), the “hERG current change (%, negative = inhibition) at 10uM” value turned out to be 17%.

Regarding `COc1ccc(NP(=O)(Nc2ccc(OC)cc2)Oc2ccccc2)cc1`, the “hERG current change (%, negative = inhibition) at 10uM” value is listed as -13.9%. With `CCCC(C)c1nnc(NC(=O)C2CC(=O)N(CCc3ccc(F)cc3)C2)s1` (centres unmarked), the “hERG current change (%, negative = inhibition) at 10uM” value is -30.1%. Consider `CCCn1c(=O)c2ccccc2n2c(SCCNCCO)nnc12.O=C(O)C(=O)O`, for which the “hERG current change (%, negative = inhibition) at 10uM” value is on record as 11.9%. Consider `CN(C)c1ccc(-c2nnn(Cc3ccccc3Br)n2)cc1`, for which the “hERG current change (%, negative = inhibition) at 10uM” value is reported as -15.7%. For `CCc1ccc(N2C(=O)C3ON(c4ccccc4)C(c4ccco4)C3C2=O)cc1` (centres unmarked), the “hERG current change (%, negative = inhibition) at 10uM” value came out at 8.67%.

Consider `Cc1ccc(NC(=O)CSc2nnc(-c3ccncc3)s2)cc1`, for which the “hERG current change (%, negative = inhibition) at 10uM” value was 5.52%. Regarding `CCCCc1ccc(NC(=S)NCCO)cc1`, the “hERG current change (%, negative = inhibition) at 10uM” value is -14%. To `CC(=O)C1C(=O)NC23CCCCC2C1c1ccccc1O3` (centres unmarked) belongs -0.592%; to `Cc1ccc(/C=C/C(=O)N(Cc2cccs2)C2CCS(=O)(=O)C2)cc1` (centres unmarked), -79%. `c1cc2c3c(cccc3c1)C(N1CCOCC1)=N2`: the “hERG current change (%, negative = inhibition) at 10uM” value is -31%. To `Cc1sc2nc(CSc3ccccc3)nc(N3CCOCC3)c2c1C` belongs 2.04%; to `CC(C)(C)OC(=O)N1CCC(c2cc(-c3cccs3)n[nH]2)CC1`, -1.2%; to `CC1(C)OC(=O)C(=NNc2ccc(C(=O)O)cc2)C(=O)O1`, 9.21%.

As for `COc1ccccc1NC(=O)CN1CCN(CC(=O)Nc2ccc3c(c2)OCCO3)CC1`, the “hERG current change (%, negative = inhibition) at 10uM” value is reported as -34.4%. Turning to `N#Cc1ccccc1NCC(=O)N1CCN(S(=O)(=O)c2ccccc2)CC1`, the “hERG current change (%, negative = inhibition) at 10uM” value is listed as -1.49%. For `O=C(NCc1ccc(F)cc1)C1CCCN1C(=O)Nc1cccc(F)c1` (centres unmarked) the value was -23.6%; for `O=C(O)CNC(=S)N(Cc1ccccc1)Cc1cccnc1`, 3.06%; for `Oc1ccc(NCc2cccc(OCc3ccc(F)cc3)c2)cc1`, -3.36%. As for `COC(=O)[C@@H]1CCCN1Cc1c(C(=O)N2CCOCC2)nc2c(C)cccn12`, the “hERG current change (%, negative = inhibition) at 10uM” value is on record as 24.1%.

For `COc1ccc(NC(=O)C(C)N2CCN(C)CC2)cc1.O=C(O)C(=O)O` (centres unmarked), the “hERG current change (%, negative = inhibition) at 10uM” value was found to be 7.47%. On to `O=C(NN1CCOCC1)c1ccc(Cl)cc1[N+](=O)[O-]`, for which the “hERG current change (%, negative = inhibition) at 10uM” value worked out at 9.31%.

`COc1ccc(NC(=O)CN(C)C(=O)c2cccc(S(=O)(=O)Nc3ccc(OC)cc3)c2)cc1`: the “hERG current change (%, negative = inhibition) at 10uM” value is -33.2%. As to `COc1ccccc1C(=O)Nc1ccc2c(c1)CN(Cc1cnc(C)s1)CC2`, the “hERG current change (%, negative = inhibition) at 10uM” value was -6.71%.

For the molecule `CCNc1nc(NCC)nc(SCCOC(=O)Nc2ccccc2)n1`, the “hERG current change (%, negative = inhibition) at 10uM” value is on record as -71%. As to `N#Cc1ccccc1CCN1C(=O)c2ccccc2C1=O`, the “hERG current change (%, negative = inhibition) at 10uM” value was found to be 20.3%. For `Cc1cc(Cl)ccc1OCC(=O)NCCCN1CCOCC1` the value was -7.33%. With `C=CCC1(NC(C)c2ccccc2)CCCCC1` (centres unmarked), the “hERG current change (%, negative = inhibition) at 10uM” value is 4.77%. Turning to `O=C(CCCn1c(=S)[nH]c2ccccc2c1=O)NC1CCCC1`, the “hERG current change (%, negative = inhibition) at 10uM” value was -14.7%. For `O=C(COC(=O)CCN=C1NS(=O)(=O)c2ccccc21)NNC(=O)c1ccccc1` the value was 6.7%; for `CCN(CC(=O)Nc1c(F)cccc1F)C(=O)/C=C/c1ccc(S(=O)(=O)N2CCCCCC2)cc1`, -16.6%; for `Cc1cc(C(=O)NN)n[nH]1`, 12.4%. To `CCn1cc([N+](=O)[O-])c(C(=O)N2N=C(c3cccc4ccccc34)CC2c2ccccc2O)n1` (centres unmarked) belongs 6.73%; to `O=C1CCCC2=C1C(c1cccs1)n1nc(SCc3ccc(C(=O)O)cc3)nc1N2` (centres unmarked), 2.81%; to `CC(C)S(=O)(=O)C1=NSC2=NC(=O)/C(=C\c3ccc(OC(=O)c4ccco4)cc3)C(=N)N21`, 12.8%. `COc1ccc(CCN=C(N)NS(=O)(=O)c2ccc(C)c(C)c2)cc1`: the “hERG current change (%, negative = inhibition) at 10uM” value is -4.21%. For `O=C(Nc1cccc(Cl)c1Cl)C1CC(=O)N(c2ccc(Br)cc2)C1` (centres unmarked), the “hERG current change (%, negative = inhibition) at 10uM” value is 15.8%.

In the case of `N#C/C(=C\c1cccs1)C(=O)NCC1CCCO1` (centres unmarked), the “hERG current change (%, negative = inhibition) at 10uM” value was found to be 13.1%.

Regarding `CCc1ccccc1NC(=O)NCc1cccnc1`, the “hERG current change (%, negative = inhibition) at 10uM” value is 20%. Turning to `CN(C)CCCOc1ccc2c(c1)Sc1ccccc1CC2=O.Cl`, the “hERG current change (%, negative = inhibition) at 10uM” value is -74.3%.

As for `O=[N+]([O-])c1ccc(-n2nnnc2CN2CCCCC2)cc1`, the “hERG current change (%, negative = inhibition) at 10uM” value was 3.57%. Consider `COCCCNC(=O)Cn1cc(C(=O)C2CC2)c2ccccc21`, for which the “hERG current change (%, negative = inhibition) at 10uM” value is -20.6%. With `COc1ccc(C(=O)Nc2cccc(C(=O)O)c2)cc1S(=O)(=O)N1CCCC1`, the “hERG current change (%, negative = inhibition) at 10uM” value is -6.4%. For `COCCCn1c(C(=O)NC2CCCCC2C)cc2c(=O)n3cccc(C)c3nc21` (centres unmarked), the “hERG current change (%, negative = inhibition) at 10uM” value is -12%. Turning to `COC(=O)c1ccccc1NC(=O)CN(c1ccccc1)S(=O)(=O)N(C)C`, the “hERG current change (%, negative = inhibition) at 10uM” value is -19%. `CC(OC(=O)c1ccc(=O)n(Cc2ccccc2)n1)C(=O)Nc1cccc(Cl)c1` (centres unmarked): the “hERG current change (%, negative = inhibition) at 10uM” value was -31.3%. Consider `Cc1ccc(Cn2c(=N)n(CC(O)c3ccco3)c3ccccc32)cc1.Cl` (centres unmarked), for which the “hERG current change (%, negative = inhibition) at 10uM” value is on record as -64.5%.

On to `O=C(Nc1nc2ccccc2[nH]1)c1ccccc1OC(F)F`, for which the “hERG current change (%, negative = inhibition) at 10uM” value is 4.59%.

Take `COc1ccc(Nc2nc(N)nc(CN3CCN(c4ccccn4)CC3)n2)cc1`: the “hERG current change (%, negative = inhibition) at 10uM” value is given as -65.1%. For `CN(c1ccc(O)cc1)c1nc(-c2cccs2)cs1` the value was 15.5%; for `Cc1c(OC(C)C(=O)N[C@H](C(=O)O)c2ccccc2)ccc2c3c(c(=O)oc12)CCCC3` (some centres unmarked), 3.5%; for `COc1ccccc1/C=N/NC(=O)c1ccc(Cn2nc([N+](=O)[O-])cc2C)cc1`, -12.7%. Turning to `CN(C)c1ccc(C(=O)NCC2CCCO2)cc1` (centres unmarked), the “hERG current change (%, negative = inhibition) at 10uM” value worked out at 8.63%. Consider `CCOC(=O)N1CCc2c(sc(NC(C)=O)c2C(N)=O)C1`, for which the “hERG current change (%, negative = inhibition) at 10uM” value was determined as 3.62%. For `CCC(CC)C1C(C#N)=C(N)Oc2cc(C)oc(=O)c21` (centres unmarked) the value was -12.7%; for `CCn1c(C(C)NC(=O)c2ccc(C)cc2)n[nH]c1=S` (centres unmarked), 12.7%. Regarding `CC1(NC(=O)Nc2cccc3ccccc23)CCS(=O)(=O)C1` (centres unmarked), the “hERG current change (%, negative = inhibition) at 10uM” value was 22.8%.

Consider `O=C(CCCNC(=O)c1ccc(Cl)cc1)OCc1cccc(Br)c1`, for which the “hERG current change (%, negative = inhibition) at 10uM” value worked out at 14.3%. In the case of `Cc1ccn2c(=O)nc(SCC(=O)N3CCC(C)CC3)nc2c1`, the “hERG current change (%, negative = inhibition) at 10uM” value was -18.4%. Turning to `COc1ccc(CNC(=O)CN2CCC(n3nnc4cc(F)ccc43)CC2)cc1`, the “hERG current change (%, negative = inhibition) at 10uM” value is listed as -68%. For the molecule `CCOC(=O)c1c(C)c(C(=O)NCc2ccco2)c(C)n1CC`, the “hERG current change (%, negative = inhibition) at 10uM” value is reported as -7.45%.

Turning to `COc1ccc(/C=N\NC(=O)C2C(=O)NCC2c2ccccc2)cc1O` (centres unmarked), the “hERG current change (%, negative = inhibition) at 10uM” value is 24.5%. For `O=C(COc1coc(CN2CCc3ccccc32)cc1=O)Nc1ccc([N+](=O)[O-])cc1` the value was 8.5%; for `Cc1cnc(NC(=O)CSc2c(Cl)cccc2Cl)s1`, -6.06%; for `CCCc1cc(=O)[nH]c(SCc2cc(=O)oc3c(C)c(C)ccc23)n1`, 0.672%. On to `Cc1nn2cc(-c3ccc(N)cc3)nc2s1`, for which the “hERG current change (%, negative = inhibition) at 10uM” value is -43.8%. Take `O=c1c2c(ncn2C2CCCC2)n(Cc2ccccc2)c(=O)n1CCOc1ccc(Br)cc1`: the “hERG current change (%, negative = inhibition) at 10uM” value stood at 13.4%. For the molecule `CCOc1cc(/C=N/NC(=O)c2ccc(O)cc2)ccc1Oc1nc(Cl)ncc1F`, the “hERG current change (%, negative = inhibition) at 10uM” value is -7.77%. To `CN(C)CCCNC(=S)Nc1ccc(Oc2ccccc2)cc1` belongs -3.24%; to `O=C(Nc1ccc(Br)cc1)c1ccc(F)c(S(=O)(=O)NCc2cccs2)c1`, -4.63%. To `COC(=O)c1ccc(NC(=O)Cn2nc(C)c3ccccc3c2=O)cc1` belongs 3.73%. As for `COc1ccc(S(=O)(=O)c2c(O)cc(C)c(NS(=O)(=O)c3ccccc3)c2C)cc1`, the “hERG current change (%, negative = inhibition) at 10uM” value is on record as 18.7%.

Turning to `Cc1cccc(NP(C)(=O)c2nc3c(s2)CCCC3)c1` (centres unmarked), the “hERG current change (%, negative = inhibition) at 10uM” value is on record as -0.347%. On to `S=C(NCCN1CCOCC1)Nc1ccccc1Cl`, for which the “hERG current change (%, negative = inhibition) at 10uM” value worked out at 3.99%. To `O=C(N[C@@H](Cc1ccccc1)C(=O)OCc1ccccc1)c1nc[nH]c1C(=O)NC(c1ccccc1)c1ccccc1` belongs 21.1%; to `O=C(NC1CCCC1)[C@@H]1CSC2c3ccccc3C(=O)N21` (some centres unmarked), 14.5%. For `COc1ccc2nc3c(cc2c1)c(NC(=O)C1CCCO1)nn3CC(C)C` (centres unmarked), the “hERG current change (%, negative = inhibition) at 10uM” value was -8.44%.

For `CCOC(=O)c1c(NC(=O)CSc2ncn[nH]2)sc(C)c1C`, the “hERG current change (%, negative = inhibition) at 10uM” value was -2.35%. Take `COc1ccc([C@H]2CC(=O)C=C(c3cc(Cl)ccc3C)C2)cc1`: the “hERG current change (%, negative = inhibition) at 10uM” value was determined as 5.62%. For the molecule `O=C(C[n+]1cnn(CC(=O)c2ccc(Cl)cc2Cl)c1)c1ccc([N+](=O)[O-])cc1.[Br-]`, the “hERG current change (%, negative = inhibition) at 10uM” value is -73.3%. Take `O=c1c2c3c(sc2n(CCN2CCCC2)c(=O)n1Cc1ccco1)CCCCC3`: the “hERG current change (%, negative = inhibition) at 10uM” value was -68.6%.

On to `COc1ccccc1C(=O)N/C(=C/c1ccco1)C(=O)Nc1cccc(C(=O)O)c1`, for which the “hERG current change (%, negative = inhibition) at 10uM” value is 4.16%.

`COc1ccc2cc(C(=O)/C=C/c3cc(OC)c(O)c(OC)c3)ccc2c1`: the “hERG current change (%, negative = inhibition) at 10uM” value was determined as 8.79%. Take `Cc1cc(CNC(=O)CC2C(=O)NCCN2Cc2ccccc2C(F)(F)F)nn1C` (centres unmarked): the “hERG current change (%, negative = inhibition) at 10uM” value stood at 9.04%. For `OCC1CCCC(n2cnc3c(=S)nc[nH]c32)O1` (centres unmarked) the value was 16.4%. As to `CN1C(=O)CC(C(=O)O)SC1=Nc1cccc(C(F)(F)F)c1` (centres unmarked), the “hERG current change (%, negative = inhibition) at 10uM” value was 5.61%.

Take `CCOC(=O)C1(Cc2cccc(OC)c2)CCCN(C(=O)CSC)C1` (centres unmarked): the “hERG current change (%, negative = inhibition) at 10uM” value is 4.94%. As to `Cn1cccc1/C=N/NC(=O)c1ccc[n+]([O-])c1`, the “hERG current change (%, negative = inhibition) at 10uM” value stood at 19.9%. For `CCN(CC)C(=O)c1ccccc1NS(=O)(=O)c1ccc(OC)c(C(=O)N2CCOCC2)c1` the value was 4.5%.
